Measured values from publication PMC13083723 (Patterns, 2026).
About 190 (3.5%) of roughly 5,400 compounds showed an effect of 50% or more. This is one part of the list.

These compounds were tested on Vero-E6 (assay: primary screen, phospholipidosis by LipidTOX staining; higher = more effect of the substance). Details: 10 µM.
Procedure: To measure drug-induced PLD in Vero-E6 cells, we used the HCS LipidTOX Red Phospholipidosis Detection Reagent (Invitrogen, #H34351), which is non-toxic to cell growth and remains well retained after aldehyde fixation. In this setup, compounds (at 10 μM concentration) and controls (amiodarone: 10 μM concentration; DMSO: 0.1 v/v %) were added to clear-bottom, 384-well plates (PhenoPlate 384-well, black, optically clear flat bottom, tissue-culture treated, Revvity #6057302) using the Echo Liquid Handler (Labcyte).
For `CNC(=O)c1ccccc1Sc1ccc2c(/C=C/c3ccccn3)[nH]nc2c1`, the result_ITMP was -1.97%.
`CCN(CC)CCOc1ccc(Cc2ccccc2)cc1` showed a result_ITMP of 30.2%.
In the case of `CCC(N)C(O)c1ccc(O)c(O)c1` (stereo not shown), the result_ITMP is reported as -3.39%.
With `CCn1cc(C(=O)O)c(=O)c2cnc(N3CCNCC3)nc21` the result_ITMP was -3.43%.
Work on `CCCCS(=O)(=O)N[C@@H](Cc1ccc(OCCCCC2CCNCC2)cc1)C(=O)O` yielded a result_ITMP of 0.26%.
With `NCCS(=O)(=O)O` the result_ITMP was -1.24%.
`COc1cc2nc(N3CCN(C(=O)c4ccco4)CC3)nc(N)c2cc1OC` gave a result_ITMP of 0.05%.
In the case of `O=C1C=Cc2cc(Br)ccc2C1=O`, the result_ITMP is reported as -7.69%.
`O[C@H]1[C@H](O)[C@@H](O)CN2CC[C@H](O)[C@H]12` showed a result_ITMP of -1.92%.
`CCCCCCCCCCCCCC(=O)[O-].CCCCCCCCCCCCCC(=O)[O-].NC1CCCCC1N.[Pt+2]` gave a result_ITMP of 0.26%.
In the case of `CCCC[C@@H](C=O)NC(=O)[C@H](CC(C)C)NC(=O)OCc1ccccc1`, the result_ITMP is reported as -1.78%.
For `Cc1ccc(NC(=O)c2ccc(CN3CCN(C)CC3)cc2)cc1Nc1nc(-c2cccnc2)cs1`, the result_ITMP was 54%.
`COc1nc(C)nc(Cl)c1NC1=NCCN1` was tested, and the result_ITMP was -1.91%.
With `C[C@](O)(COc1ccc(C#N)cc1)C(=O)Nc1ccc(C#N)c(C(F)(F)F)c1` the result_ITMP was -3.77%.
Work on `Oc1ccc2c3c1O[C@H]1c4c(c5ccccc5n4Cc4ccccc4)C[C@@]4(O)C(C2)N(CC2CC2)CC[C@]314` yielded a result_ITMP of 47.6%.
For `CO[C@@]1(NC(=O)C(C(=O)[O-])c2ccc(O)cc2)C(=O)N2C(C(=O)[O-])=C(CSc3nnnn3C)CO[C@@H]21` (stereo partly shown), the result_ITMP was -4.09%.
In the case of `CS(=O)(=O)Nc1ccc(-c2coc3cc(OCc4cccc(C(=O)O)c4)ccc3c2=O)cc1`, the result_ITMP is reported as 4.65%.
Work on `C=CC[C@@H]1/C=C(\C)C[C@H](C)C[C@H](OC)[C@H]2O[C@@](O)(C(=O)C(=O)N3CCCC[C@H]3C(=O)O[C@H](/C(C)=C/[C@@H]3CC[C@@H](O)[C@H](OC)C3)[C@H](C)[C@@H](O)CC1=O)[C@H](C)C[C@@H]2OC` yielded a result_ITMP of 0.53%.
In the case of `BrC1C(Br)C(Br)C(Br)C(Br)C1Br` (stereo not shown), the result_ITMP is reported as -2.01%.
In the case of `O=C(N/N=C/c1ccc(O)c(O)c1)c1cc2ccccc2cc1O`, the result_ITMP is reported as -0.67%.
Work on `O=S(=O)(O)c1ccc(-c2c3nc(c(-c4ccc(S(=O)(=O)O)cc4)c4ccc([nH]4)c(-c4ccc(S(=O)(=O)O)cc4)c4nc(c(-c5ccc(S(=O)(=O)O)cc5)c5ccc2[nH]5)C=C4)C=C3)cc1` yielded a result_ITMP of 1.12%.
`CCCC(CCC)C(=O)[O-]` showed a result_ITMP of -5.85%.
Compound `Cc1ccc(C(=O)c2cc(O)c(O)c([N+](=O)[O-])c2)cc1` has a result_ITMP of 6.64%.
`O=S(=O)([O-])CC(S)CS` (stereo not shown) showed a result_ITMP of -3.17%.
With `CC(N)Cc1c[nH]c2ccc(O)cc12` (stereo not shown) the result_ITMP was -1.42%.
Compound `O=C(Nc1ccc(Cl)cc1)Nc1cccc(-c2cccc(N3CCCC3)n2)c1` has a result_ITMP of -10.8%.
With `COc1ccc2[nH]cc(CCNC(C)=O)c2c1` the result_ITMP was -1.72%.
For `Cn1nc(-c2cccc(F)c2)n(C)c1=S`, the result_ITMP was 0.34%.
`N#CN1CCCC1` gave a result_ITMP of -7.33%.
`COc1ccc(COc2ccc(Cc3cnc(N)nc3N)cc2OC)cc1` gave a result_ITMP of -3.18%.
For `C=CC(=O)N1CCCC(n2nc(-c3ccc(Oc4ccccc4)cc3)c3c(N)ncnc32)C1` (stereo not shown), the result_ITMP was -4.8%.
For `Cc1cc([N+](=O)[O-])ccc1NS(=O)(=O)c1cc(Cl)ccc1Cl`, the result_ITMP was -0.26%.
For `COc1ccc(C(=O)NCc2cccnc2)cc1C(=O)NCc1cccnc1`, the result_ITMP was -4.7%.
`COc1cc(OC)c(/C=C/S(=O)(=O)Cc2ccc(OC)c(OP(=O)(O)O)c2)c(OC)c1` showed a result_ITMP of 0.71%.
`CO[C@@]1(NC(=O)Cc2cccs2)C(=O)N2C(C(=O)[O-])=C(COC(N)=O)CS[C@@H]21` gave a result_ITMP of -2.27%.
Compound `CCC(=O)OCC(=O)C1(OC(=O)CC)[C@H](C)C[C@H]2[C@H]3[C@H]([C@@H](O)C[C@@]21C)[C@@]1(C)C=CC(=O)C=C1C[C@H]3Cl` (stereo partly shown) has a result_ITMP of -10.3%.
With `O=C(O)CCNc1cc(N2CCc3ccccc3CC2)nc(-c2ccccn2)n1` the result_ITMP was 0.05%.
Work on `c1cnc(SCc2cccnc2)nc1` yielded a result_ITMP of 8.77%.
With `O=C(NCCNCC(O)COc1ccc(O)cc1)N1CCOCC1` (stereo not shown) the result_ITMP was -4.42%.
`Cc1nc(Nc2ccc(F)cc2)nc(N2CCc3ccccc3C2C)c1C` (stereo not shown) showed a result_ITMP of 18.1%.
For `C=C1/C(=C\C=C2/CCC[C@]3(C)[C@@H]([C@H](C)/C=C/C=C/C(O)(CC)CC)CC[C@@H]23)C[C@@H](O)C[C@@H]1O`, the result_ITMP was -2.42%.
Work on `CN(C)CCOC1=Cc2ccccc2Sc2ccc(Cl)cc21` yielded a result_ITMP of 13.9%.
In the case of `C#C[C@]1(OC(=O)CCCCCC)CC[C@H]2[C@@H]3CCC4=CC(=O)CC[C@@H]4[C@H]3CC[C@@]21C`, the result_ITMP is reported as 3.23%.
`OC(CCN1CCCCC1)(c1ccccc1)C1CC2C=CC1C2` (stereo not shown) showed a result_ITMP of 1.94%.
`O=C(Cc1cccc(OC(F)(F)F)c1)Nc1ccc(CCCCc2nnc(NC(=O)Cc3ccccn3)s2)nn1` was tested, and the result_ITMP was -0.25%.
Compound `CCN(CC)CC#CCOC(=O)C(O)(c1ccccc1)C1CCCCC1` (stereo not shown) has a result_ITMP of 24.9%.
With `CC(=O)O/N=C1\C(=O)N(Cc2cc(Cl)ccc2Cl)c2ccc(Cl)cc21` the result_ITMP was -8.17%.
Compound `CN1C2CCCC1CC(NC(=O)c1nn(C)c3ccccc13)C2` (stereo not shown) has a result_ITMP of 5.63%.
With `Oc1cc2c(cc1O)[C@H]1c3ccccc3CN[C@@H]1CC2` (racemic) the result_ITMP was 3.51%.
`N=C(N)c1cc2ccc(OC(=O)c3cccs3)cc2s1` gave a result_ITMP of 6.82%.
With `CC(C)(C)NCC(O)COc1cc(Cl)ccc1Cl` (stereo not shown) the result_ITMP was 36.1%.
`CC(=O)Nc1ccc(OC[C@](C)(O)C(=O)Nc2ccc([N+](=O)[O-])c(C(F)(F)F)c2)cc1` gave a result_ITMP of 1.08%.
With `CN1c2ccccc2C(NCCCCCCC(=O)[O-])c2ccc(Cl)cc2S1(=O)=O` (stereo not shown) the result_ITMP was -11.6%.
Compound `CC(C)C[C@H](NC(=O)[C@H](CCCCN)NC(=O)[C@H](CCCNC(=N)N)NC(=O)[C@H](C)NC(=O)[C@H](CO)NC(=O)[C@H](CCCCN)NC(=O)[C@H](CCCNC(=N)N)NC(=O)[C@H](C)NC(=O)CNC(=O)[C@@H](NC(=O)[C@H](Cc1ccccc1)NC(=O)CNC(=O)CNC(=O)[C@@H](N)Cc1ccccc1)[C@@H](C)O)C(=O)N[C@@H](C)C(=O)N[C@@H](CC(N)=O)C(=O)N[C@@H](CCC(N)=O)C(=O)O` has a result_ITMP of -0.22%.
Work on `Cc1ccc2c(-c3ccccc3)nc(=O)n(C(C)C)c2c1` yielded a result_ITMP of 3%.
Compound `COc1cccc(OC)c1-c1cc(C(=O)NC2(C(=O)O)C3CC4CC(C3)CC2C4)nn1-c1ccnc2cc(Cl)ccc12` (stereo not shown) has a result_ITMP of -10.3%.
Compound `CC(C)[C@H](N)C(=O)OCCOCn1cnc2c(=O)[nH]c(N)nc21` has a result_ITMP of 4.32%.
Work on `CN(NC(=O)CC(=O)NN(C)C(=S)c1ccccc1)C(=S)c1ccccc1` yielded a result_ITMP of -1.56%.
`C[C@]12N[C@H](Cc3ccccc31)c1ccccc12` was tested, and the result_ITMP was 2.5%.
Compound `O=C(O)C[C@H]1CC[C@H](c2ccc(NC(=O)c3nnc(Nc4ccc(F)c(F)c4)o3)cc2)CC1` has a result_ITMP of 1.42%.
`O=C1c2ccccc2-n2c1nc1ccccc1c2=O` was tested, and the result_ITMP was -1.15%.
With `CC(C)(C)[C@]1(O)C[C@@H]2OC(=O)C[C@@]23C(=O)O[C@@H]2OC(=O)[C@H](O)C213` (stereo partly shown) the result_ITMP was -3.55%.
In the case of `Cc1c(F)cc(C(=O)NC2CC2)cc1-c1c(F)cn2c(C(C)(C)C)nnc2c1F`, the result_ITMP is reported as -4.18%.
Compound `CC(=O)O[C@H]1CC[C@@]2(C)C(=CC[C@@H]3[C@@H]2CC[C@]2(C)C(c4cccnc4)=CC[C@@H]32)C1` has a result_ITMP of 2.09%.
Work on `O=[N+]([O-])c1ccccc1S(=O)(=O)NC[C@H]1CC[C@H](CNCC2CCc3ccccc3C2)CC1` (stereo partly shown) yielded a result_ITMP of 47.2%.
Work on `NCCc1ccccn1` yielded a result_ITMP of -5.68%.
In the case of `CC[C@H](NC(C)C)[C@H](O)c1ccc(O)c2[nH]c(=O)ccc12` (racemic), the result_ITMP is reported as -0.93%.
`CC(C)c1ccc(C(=O)NC(=N)N)cc1S(C)(=O)=O` gave a result_ITMP of -2.54%.
`CCN(CC)C(C)C(=O)c1ccccc1` (stereo not shown) was tested, and the result_ITMP was -5.15%.
With `COc1ccc(-c2c(C)c(C(=O)NN3CCCCC3)nn2-c2ccc(Cl)cc2Cl)cc1` the result_ITMP was -8.49%.
`CCC1=C[C@@H]2C[N@@]3CCc4c([nH]c5ccccc45)[C@@](C(=O)OC)(C2)[C@@H]13` was tested, and the result_ITMP was 6.61%.
`CN(C)CCC[C@@]1(c2ccc(F)cc2)OCc2cc(C#N)ccc21` gave a result_ITMP of 2.98%.
`COc1ccc(C(=O)N2CCCc3cc(C4=NNC(=O)SC4C)ccc32)cc1OC` (stereo not shown) was tested, and the result_ITMP was 1.03%.
Work on `FC(F)(F)C(F)(F)C(F)(F)C(F)(F)C(F)(F)C(F)(F)C(F)(F)C(F)(F)Br` yielded a result_ITMP of -4.5%.
Compound `O=C(CNC(=O)c1ccc(Cl)cc1)NO` has a result_ITMP of 10.2%.
With `CN1CCCC(n2nc(Cc3ccc(Cl)cc3)c3ccccc3c2=O)CC1` (stereo not shown) the result_ITMP was 57.2%.
With `O=c1oc(-c2ccc(C(F)(F)F)cc2)nn1Cc1cc(Cl)ccc1O` the result_ITMP was -3.61%.
Compound `COc1ccc(S(=O)(=O)N2c3ccc(Cl)cc3[C@](O)(c3ccccc3Cl)[C@@H]2C(=O)N2CCC[C@H]2C(N)=O)cc1OC` has a result_ITMP of -3.08%.
`C[N+](C)(CF)CCO` showed a result_ITMP of -5.63%.
Work on `O=C1CCCN1CC#CCN1CCCC1` yielded a result_ITMP of 0.42%.
Work on `CCN(CC)CCOc1ccc(/C(=C(\Cl)c2ccccc2)c2ccccc2)cc1` yielded a result_ITMP of 108%.
`O=S(=O)(c1ccccc1)c1cnc2c(N3CCNCC3)cccc2c1` gave a result_ITMP of 39.6%.
In the case of `COc1ccc(-n2c(C)c([N+](=O)[O-])c3ccc(O)cc32)cc1`, the result_ITMP is reported as -8.94%.
`CC(C)C[C@H](NC(=O)[C@H](CCc1ccccc1)NC(=O)CN1CCOCC1)C(=O)N[C@@H](Cc1ccccc1)C(=O)N[C@@H](CC(C)C)C(=O)[C@@]1(C)CO1` showed a result_ITMP of 2.11%.
`CCc1cncnc1N1CCN(Cc2nc3cc(C(F)(F)F)ccc3[nH]2)CC1` was tested, and the result_ITMP was -0.72%.
